# Publication PMC4336329 (PLoS ONE, 2015)
# Hit rate of the full screen: of about 310,000 compounds, about 14,000 (4.5%) showed an effect of 50% or more. The effect is printed as a negative number. Some of the results follow.
# Biological target: human ether-à-go-go-related gene (hERG) potassium channel (human, UniProt Q12809)
# Assay: primary screen, population patch clamp on CHO cells stably expressing hERG
# 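Also: peak tail current of the secondary pulse compared with the same well before compound.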
# Chain of human ether-à-go-go-related gene (hERG) potassium channel (Q12809 whole entry, looked up): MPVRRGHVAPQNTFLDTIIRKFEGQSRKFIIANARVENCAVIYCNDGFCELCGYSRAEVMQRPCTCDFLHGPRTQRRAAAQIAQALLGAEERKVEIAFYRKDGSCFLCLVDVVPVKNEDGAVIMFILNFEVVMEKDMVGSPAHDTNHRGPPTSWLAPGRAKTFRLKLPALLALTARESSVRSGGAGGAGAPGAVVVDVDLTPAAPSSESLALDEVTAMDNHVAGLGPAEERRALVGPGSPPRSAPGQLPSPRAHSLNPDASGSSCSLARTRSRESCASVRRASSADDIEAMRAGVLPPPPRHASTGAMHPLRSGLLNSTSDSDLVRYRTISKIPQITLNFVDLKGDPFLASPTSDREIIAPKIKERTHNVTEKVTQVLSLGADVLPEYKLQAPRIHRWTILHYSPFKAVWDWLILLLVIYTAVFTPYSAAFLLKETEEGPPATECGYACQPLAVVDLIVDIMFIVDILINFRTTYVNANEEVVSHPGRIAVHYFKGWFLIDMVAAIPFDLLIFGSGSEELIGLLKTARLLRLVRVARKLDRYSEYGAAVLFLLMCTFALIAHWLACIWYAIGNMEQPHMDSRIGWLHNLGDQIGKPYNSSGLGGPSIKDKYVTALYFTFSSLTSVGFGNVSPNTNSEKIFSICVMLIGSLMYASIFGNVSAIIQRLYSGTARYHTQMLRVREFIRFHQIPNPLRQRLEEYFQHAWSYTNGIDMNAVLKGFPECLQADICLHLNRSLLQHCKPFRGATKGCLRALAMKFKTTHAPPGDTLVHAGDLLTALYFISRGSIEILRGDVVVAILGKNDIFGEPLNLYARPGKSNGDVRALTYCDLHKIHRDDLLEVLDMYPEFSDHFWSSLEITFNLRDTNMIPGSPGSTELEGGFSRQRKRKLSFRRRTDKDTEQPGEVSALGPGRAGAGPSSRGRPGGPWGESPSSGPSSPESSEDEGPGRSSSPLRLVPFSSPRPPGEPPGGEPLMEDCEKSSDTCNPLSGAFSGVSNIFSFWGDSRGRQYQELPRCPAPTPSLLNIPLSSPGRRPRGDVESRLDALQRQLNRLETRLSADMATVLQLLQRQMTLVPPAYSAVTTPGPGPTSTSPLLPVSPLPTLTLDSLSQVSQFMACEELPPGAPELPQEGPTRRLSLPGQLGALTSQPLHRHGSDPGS
row,SMILES,"hERG current change (%, negative = inhibition) at 10uM [%]"
1,COc1cc(/C=C2\C=CC(=O)O2)cc(OC)c1,4.84
2,Cc1ccc(-c2noc(CCCC(=O)NC3CCCC3)n2)cc1,-8.35
3,CCN(CC)CC.CN1C(=O)/C(=C2/C=Cc3ccccc3N2CCCS(=O)(=O)O)SC1=S,-2.53
4,O=C(N1CCOCC1)C(F)(F)C(=O)N1CCOCC1,-1.29
5,COC(=O)c1ccc(NC(=S)N2CCCC2)cc1,19.5
6,COc1ccnc(Oc2cccc(C(F)(F)F)c2)c1C(=O)N/C=N/OCc1ccccc1F,14.3
7,O=C(O)c1cc2ccc3ccccc3c2[nH]1,1.56
8,CCOC(=O)c1cc(=O)n(Cc2ccccc2C)c2ccccc12,-43.2
9,CC(C)(C)NC(=O)COc1ccccc1C#N,37.6
10,COc1ccc(NC(=O)CSc2nnc(-c3ccccc3)n2Cc2ccco2)c(OC)c1,-26.4
11,CCC(=O)NCCCCCCCCCNC(=O)CC,16.1
12,CCN1C(=O)C(=O)N(CC(=O)Nc2ccccc2Oc2ccccc2)C1=O,21.9
13,CCOC(=O)N1CCN(C(=O)Cn2cc3c(n2)CCCC3)CC1,-72.4
14,O=C(Cc1ccc(Cl)cc1)NCCS(=O)(=O)N1CCN(c2ccccc2)CC1,-3.36
15,Cc1cc(C)c(C2=Nn3c(C)nnc3SC2C)cc1C (stereo not shown),5.85
16,O=C(CN(Cc1ccccc1F)C(=O)c1csnn1)NC1CCCCC1,6.81
17,CCOc1ccc(OCCNC(=O)C(NC(=O)c2c(F)cccc2F)C(C)C)cc1 (stereo not shown),-10.6
18,COc1ccc(OC)c(Cc2nnc(CCC(=O)NC3CCCCCCC3)o2)c1,-9.71
19,CC(C)NC(=O)NC(=O)COC(=O)c1cccc(OC(F)F)c1,10.6
20,NCCCNC(=O)c1cc2ccccc2[nH]1,5.31

row,SMILES,"hERG current change (%, negative = inhibition) at 10uM [%]"
1,O=C(CCNC(=O)C1CCN(S(=O)(=O)c2ccccc2)CC1)NCc1cccc(C(F)(F)F)c1,-26.1
2,Cc1nnc(SCC(N)=O)n1CC1CCCO1 (stereo not shown),3.55
3,Cc1ccccc1COC[C@H](CC(C)C)N1CCN(C(=O)c2cccc(C(F)(F)F)c2)CCC1=O,-11.3
4,CC(Sc1nnc2ccccn12)C(=O)NCc1ccc2c(c1)OCO2 (stereo not shown),4.95
5,O=C(CN1C(=O)/C(=C\c2cccs2)SC1=S)Nc1cccc(C(=O)O)c1,13.5
6,COc1ccc(-c2csc(NC(=O)c3cc(-c4cccs4)nc4ccccc34)n2)c(OC)c1,3.25
7,C/C(CCN1CCc2nc(-c3ccccc3)c(-c3ccccc3)cc2C1)=N\O[C@H](C)c1cn([C@H](CO)Cc2ccccc2)nn1,-17.7
8,CC(C)NC(=O)c1ccccc1S(=O)(=O)c1ccccc1C#N,5.28
9,CCOc1cc(/C=N/Nc2nc(Nc3ccccc3)nc(N3CCCCC3)n2)ccc1OCC(=O)O,1.61
10,COc1ccc(C(=O)OCC(=O)N2C(C)CCCC2C)cc1[N+](=O)[O-] (stereo not shown),-6.13
11,O=C(CSc1nc(O)cc(=O)n1-c1ccccc1)Nc1nc2ccccc2s1,16
12,C/C(CC(=O)NC1CCCCCC1)=N\NC(=O)c1cnccn1,2.01
13,O=C(N/N=C/c1ccncc1)c1cc(-c2ccc(Br)s2)[nH]n1,-12.4
14,Cc1cc(C)n(-c2cc(-c3ccccc3)nc(C)n2)n1,0.36
15,CCSc1nnc(CCNC(=O)OC(C)(C)C)o1,7.7
16,O=C(CCCN1C(=O)c2cccnc2C1=O)Nc1ccc(Br)cc1,-1.96
17,CN1CCN(CC#CC2(O)CCCCC2)CC1,6.31
18,Cn1c(CSCc2ccc(F)cc2)n[nH]c1=S,19.8
19,Cc1cc(NC(=O)CSc2nc(=O)n3cccc(C)c3n2)no1,-4.2
20,Cc1nc2sc3c(O)cc(=O)[nH]c3c2c(C)c1C,0.113

row,SMILES,"hERG current change (%, negative = inhibition) at 10uM [%]"
1,CC(=O)NC1(c2ccccc2)CCN(CC(=O)N2CCC(C)CC2)CC1,26.5
2,COc1ccc(NC(=O)CN(C)C(=O)/C=C/c2cn(-c3ccccc3)nc2-c2ccc(C)cc2)cc1,13.8
3,C=CCn1c(SCC(=O)Nc2ccccc2OC)nnc1-c1ccccn1,-32.1
4,Cc1cc(C(=O)CCC(=O)N2CCN(c3ccccc3F)CC2)c(C)s1,-30.3
5,CCCc1nnc(NC(=O)CN2CCOCC2)s1.Cl,11.3
6,Cc1cc(=O)oc2cc(OCC#N)ccc12,11.6
7,CC(=O)NCCN=Cc1sc2ccccc2c1O,9.56
8,O=S(=O)(F)c1ccc2nc(-c3cccc(Sc4ccccc4)c3)cc(Cl)c2c1,10.4
9,Cc1ncc([N+](=O)[O-])n1Cc1ccc(Br)cc1,-26.2
10,COc1ccc(NC(=O)Nc2cc(C(=O)O)ccc2N2CC3CC(C2)c2cccc(=O)n2C3)c(OC)c1 (stereo not shown),8.14
11,O=c1c(C/C=C/c2ccccc2)c(O)ccn1Cc1ccc(Cl)cc1Cl,24.2
12,CCCCCC(=O)Nc1cccc(C2=NOC3(C2)C[C@H](C(N)=O)N(C(=O)[C@H]2CCC(=O)N2)C3)c1 (stereo partly shown),19.2
13,O=C(CS(=O)(=O)c1ccccc1)NCc1ccco1,13.2
14,CC(=O)Nc1ccc(NC(=O)CSc2ccc3nnc(-c4ccccn4)n3n2)cc1,17.7
15,Cc1ccc(OCCOCCN2CCCC2)c(Br)c1.O=C(O)C(=O)O,-24.7
16,CCOc1ccccc1C1CC(=O)NC2=C1C(=O)CCC2 (stereo not shown),13.6
17,Cn1cccc1Cc1nnc(SCC(=O)N2CCCCCC2)n1CCc1ccccc1,-5.44
18,CCc1ccccc1N(CC(=O)Nc1cccc(N(C)S(C)(=O)=O)c1)S(C)(=O)=O,-0.199
